# From article PMC5836133
# The list shows a part of the results. At the low end of the ranking the order means little.
# Tested on: T1, GST-NbGlk1(82-244)
# T1 sequence: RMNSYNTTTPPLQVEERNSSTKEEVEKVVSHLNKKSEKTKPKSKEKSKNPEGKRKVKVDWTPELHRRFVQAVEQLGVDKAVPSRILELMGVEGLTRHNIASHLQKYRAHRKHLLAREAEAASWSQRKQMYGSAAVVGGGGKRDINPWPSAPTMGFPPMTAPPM
# Assay: protein-binding microarray;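 also: rank-based score ranging −0.5 to +0.5 with E above 0.45 taken as significant binding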
# Conditions: NbGlk1 is a Golden2-like transcription factor of Nicotiana benthamiana; high values mean tight binding; most listed sequences are background and not binding sites; double strand, one strand shown
row,Sequence,binding signal
1,CAGATTGG,0.0389 E-score
2,AGTCCCGG,-0.317 E-score
3,CACTAGTG,0.00884 E-score
4,ACGGGTCG,-0.285 E-score
5,AAACCTAA,-0.0986 E-score
6,AACATCGC,0.063 E-score
7,AGCCCTTG,-0.211 E-score
8,CACCTTCA,-0.0871 E-score
9,ACGCCTCT,-0.264 E-score
10,AAAGCTGG,-0.0227 E-score
11,CACGATAC,0.116 E-score
12,ATTGACGA,-0.0237 E-score
13,AATCTCCC,0.387 E-score
14,CAACGTTC,-0.142 E-score
15,ACCGGCGG,-0.143 E-score
16,ATTGTTTC,0.0745 E-score
17,ACGCGCAG,-0.109 E-score
18,AATGGGCA,-0.178 E-score
19,ATCAGTCG,0.00923 E-score
20,CACACTTC,0.0916 E-score
21,ATGATCCA,0.149 E-score
22,AACGAACC,-0.153 E-score
23,AATAATGC,0.174 E-score
24,ACCTGAGT,-0.155 E-score
25,AAGTGTGA,0.019 E-score

row,Sequence,binding signal
1,AACGGCAT,-0.147 E-score
2,ACTGGACC,-0.173 E-score
3,ACGGTACC,0.036 E-score
4,AACTCCAA,-0.0275 E-score
5,ACGAAGCA,-0.124 E-score
6,ATACAAGA,0.127 E-score
7,AAAATTTC,0.276 E-score
8,CAGAGAAC,-0.0236 E-score
9,AGAACCTA,-0.0884 E-score
10,ATTCGCTG,0.298 E-score
11,AAGTGAGT,-0.0722 E-score
12,ATATGTAG,0.163 E-score
13,AGCCTTGA,-0.0553 E-score
14,ACCTGTGG,-0.162 E-score
15,ATGGGCGC,-0.116 E-score
16,ACAGAATG,-0.153 E-score
17,ATCAATAC,0.175 E-score
18,AACGGTTC,-0.208 E-score
19,ATTCCTGG,0.119 E-score
20,AGCTCATC,-0.191 E-score
21,AGCGTAAG,-0.15 E-score
22,CAAAGAGC,-0.175 E-score
23,ATGCCATG,-0.255 E-score
24,AGAAACCA,-0.00454 E-score
25,CACCCCTC,-0.154 E-score

row,Sequence,binding signal
1,ACGGTGAT,0.223 E-score
2,AGGTCAAG,-0.145 E-score
3,AGAGCCAT,-0.143 E-score
4,AAGCGTAT,0.1 E-score
5,AGGCGAAC,-0.158 E-score
6,CACCCCGG,-0.344 E-score
7,AATTGTCC,0.117 E-score
8,AAGTTAAT,0.0355 E-score
9,AACGAAAG,0.0404 E-score
10,AACAAAGT,-0.0877 E-score
11,ATTCGGGA,0.286 E-score
12,AGCCACTA,-0.0957 E-score
13,AGTAACGA,0.0335 E-score
14,AGACTCAA,-0.116 E-score
15,ACGTGATA,0.186 E-score
16,ATATTGTG,0.235 E-score
17,CACCGTAG,-0.204 E-score
18,AGTTTCAC,-0.103 E-score
19,CACCCCAG,-0.0975 E-score
20,ACAACGTA,0.0956 E-score
21,AGGGTCAA,-0.142 E-score
22,ATCATGCA,0.0462 E-score
23,ACCATCGT,-0.122 E-score
24,ACCGGTGA,-0.176 E-score
25,ATACCAAC,0.0082 E-score

row,Sequence,binding signal
1,AAGGACTA,-0.137 E-score
2,AGGTCATC,-0.297 E-score
3,CAAATAAC,0.129 E-score
4,ACGTTGAC,-0.218 E-score
5,ACCTCTTA,-0.0337 E-score
6,AATACGCA,0.158 E-score
7,ATGTGGGC,-0.228 E-score
8,AAAAAAAA,0.221 E-score
9,ACCGGAAA,-0.023 E-score
10,AAGAAGTC,-0.0686 E-score
11,AGCGATAC,0.159 E-score
12,AAAAAGTC,0.0671 E-score
13,AGCGTACA,-0.00954 E-score
14,ATTTAGCG,0.132 E-score
15,AAGATCTT,0.399 E-score
16,ATATAAGC,0.0407 E-score
17,AATTTTGC,0.0496 E-score
18,AGCTGAAC,-0.255 E-score
19,AAACAAGG,-0.0516 E-score
20,ATCGGGGG,-0.0347 E-score
21,ATACTGAG,0.104 E-score
22,ACTGTACC,-0.163 E-score
23,ATCGCTTG,0.192 E-score
24,AGTCCGCC,-0.227 E-score
25,ATTACCGG,0.18 E-score

row,Sequence,binding signal
1,ATTTAATC,0.117 E-score
2,ACCTGTTG,-0.118 E-score
3,CAGATAAG,0.118 E-score
4,ATAGGCAG,-0.0725 E-score
5,ATCAGATC,0.35 E-score
6,ATTTTCGA,0.266 E-score
7,AGATTCAT,0.24 E-score
8,AGATCTGC,0.411 E-score
9,ACGCCGGG,-0.153 E-score
10,ACGGGTGC,-0.345 E-score
11,AGCGTGCC,-0.327 E-score
12,AACGCCAG,-0.29 E-score
13,ACCTCTAG,-0.162 E-score
14,CACGTTCG,-0.138 E-score
15,AATTTAGG,0.172 E-score
16,ACACGCTC,-0.108 E-score
17,AGCAACCA,-0.0543 E-score
18,AAGCTAGG,-0.0998 E-score
19,ACTACTAG,-0.124 E-score
20,ATTCGCGA,0.318 E-score
21,AAATGCAA,0.097 E-score
22,ATAAAGAC,0.121 E-score
23,AGTGCTCG,-0.134 E-score
24,AAAGATCT,0.38 E-score
25,ACACTATC,0.0525 E-score

row,Sequence,binding signal
1,ACGCTTCC,-0.161 E-score
2,ATGAACGG,-0.0903 E-score
3,AGTCATGA,0.0313 E-score
4,ACTCAACG,-0.0861 E-score
5,AGTTACGA,0.0503 E-score
6,AGCAACGC,-0.202 E-score
7,ATAATGTA,0.2 E-score
8,ACTCGCAC,-0.163 E-score
9,ACCCTTGG,-0.144 E-score
10,ATAAATCC,0.244 E-score
11,ATACTCGG,0.142 E-score
12,ATCGTCTG,0.0629 E-score
13,ACAGTGCA,0.0164 E-score
14,ATCTGAGC,0.219 E-score
15,AATCCTGA,0.399 E-score
16,ATCATTGG,0.111 E-score
17,AGTTGGGA,0.0639 E-score
18,ATATAGCC,0.0876 E-score
19,ATGCTCGA,-0.07 E-score
20,ACTTTTAT,0.155 E-score
21,ACGGATAA,0.0259 E-score
22,AAGTATTC,0.00686 E-score
23,ACGCCGAC,-0.257 E-score
24,ACTCCCGA,0.0489 E-score
25,ACACGCTA,-0.0171 E-score

row,Sequence,binding signal
1,AGCCTACT,-0.16 E-score
2,AACTGAGT,-0.189 E-score
3,AGGACTTC,-0.162 E-score
4,ATGCAATC,0.452 E-score
5,CAAATTTC,0.232 E-score
6,CACTCAGG,-0.286 E-score
7,AATCTGTC,0.391 E-score
8,ACTAGTCT,-0.0503 E-score
9,AACTAGCC,-0.0582 E-score
10,CAGCGAGG,-0.137 E-score
11,AGACCAGC,-0.134 E-score
12,ACACGAAT,0.25 E-score
13,ATCGGGAA,0.276 E-score
14,CAAATCAA,0.228 E-score
15,ATTTGGAA,0.149 E-score
16,ATTACCCC,0.247 E-score
17,CACCGGCG,-0.231 E-score
18,ATTTCCAG,0.343 E-score
19,ATCATCAG,0.0567 E-score
20,AATCTAAC,0.413 E-score
21,AAACCTAC,-0.00276 E-score
22,AAAATTTA,0.248 E-score
